Values of other authors, collected in patent US12240904B2, “Use of anti-PD-1 antibody in combination with famitinib in preparation of drug for treating tumors” (Jiangsu Hengrui Medicine Co., Ltd., priority 2018, dated 2025).

Tested on: solid tumors
Details: in vivo; cited from earlier work

B1: Compound A: PD-1 antibody with heavy and light chain sequences as shown in SEQ ID NO: 7 and SEQ ID NO: 8 (antibody)
heavy: EVQLVESGGGLVQPGGSLRLSCAASGFTFSSYMMSWVRQAPGKGLEWVATISGGGANTYYPDSVKGRFTISRDNAKNSLYLQMNSLRAEDTAVYYCARQLYYFDYWGQGTTVTVSSASTKGPSVFPLAPCSRSTSESTAALGCLVKDYFPEPVTVSWNSGALTSGVHTFPAVLQSSGLYSLSSVVTVPSSSLGTKTYTCNVDHKPSNTKVDKRV[human IgG4 Fc with S228P (EU numbers) not spelt out]
light: DIQMTQSPSSLSASVGDRVTITCLASQTIGTWLTWYQQKPGKAPKLLIYTATSLADGVPSRFSGSGSGTDFTLTISSLQPEDFATYYCQQVYSIPWTFGGGTKVEIKRTVAAPSVFIFPPSDEQLKSGTASVVCLLNNFYPREAKVQWKVDNALQSGNSQESVTEQDSKDSTYSLSSTLTLSKADYEKHKVYACEVTHQGLSSPVTKSFNRGEC
modifications: PEPTIDE (1)..(443) heavy chain sequence; PEPTIDE (1)..(214) light chain sequence
- incidence of reactive cutaneous capillary hyperplasia: 54.3%
